Source: paper PMC4336329 (PLoS ONE, 2015)
In all, about 310,000 compounds went through this assay and about 2,200 (0.71%) showed an effect of 50% or more. The effect is printed as a negative number. Some of the results follow.

Each compound was assayed against human ether-à-go-go-related gene (hERG) potassium channel (human, UniProt Q12809) (assay: primary screen, population patch clamp on CHO cells stably expressing hERG).
Chain of human ether-à-go-go-related gene (hERG) potassium channel (Q12809 whole entry, looked up): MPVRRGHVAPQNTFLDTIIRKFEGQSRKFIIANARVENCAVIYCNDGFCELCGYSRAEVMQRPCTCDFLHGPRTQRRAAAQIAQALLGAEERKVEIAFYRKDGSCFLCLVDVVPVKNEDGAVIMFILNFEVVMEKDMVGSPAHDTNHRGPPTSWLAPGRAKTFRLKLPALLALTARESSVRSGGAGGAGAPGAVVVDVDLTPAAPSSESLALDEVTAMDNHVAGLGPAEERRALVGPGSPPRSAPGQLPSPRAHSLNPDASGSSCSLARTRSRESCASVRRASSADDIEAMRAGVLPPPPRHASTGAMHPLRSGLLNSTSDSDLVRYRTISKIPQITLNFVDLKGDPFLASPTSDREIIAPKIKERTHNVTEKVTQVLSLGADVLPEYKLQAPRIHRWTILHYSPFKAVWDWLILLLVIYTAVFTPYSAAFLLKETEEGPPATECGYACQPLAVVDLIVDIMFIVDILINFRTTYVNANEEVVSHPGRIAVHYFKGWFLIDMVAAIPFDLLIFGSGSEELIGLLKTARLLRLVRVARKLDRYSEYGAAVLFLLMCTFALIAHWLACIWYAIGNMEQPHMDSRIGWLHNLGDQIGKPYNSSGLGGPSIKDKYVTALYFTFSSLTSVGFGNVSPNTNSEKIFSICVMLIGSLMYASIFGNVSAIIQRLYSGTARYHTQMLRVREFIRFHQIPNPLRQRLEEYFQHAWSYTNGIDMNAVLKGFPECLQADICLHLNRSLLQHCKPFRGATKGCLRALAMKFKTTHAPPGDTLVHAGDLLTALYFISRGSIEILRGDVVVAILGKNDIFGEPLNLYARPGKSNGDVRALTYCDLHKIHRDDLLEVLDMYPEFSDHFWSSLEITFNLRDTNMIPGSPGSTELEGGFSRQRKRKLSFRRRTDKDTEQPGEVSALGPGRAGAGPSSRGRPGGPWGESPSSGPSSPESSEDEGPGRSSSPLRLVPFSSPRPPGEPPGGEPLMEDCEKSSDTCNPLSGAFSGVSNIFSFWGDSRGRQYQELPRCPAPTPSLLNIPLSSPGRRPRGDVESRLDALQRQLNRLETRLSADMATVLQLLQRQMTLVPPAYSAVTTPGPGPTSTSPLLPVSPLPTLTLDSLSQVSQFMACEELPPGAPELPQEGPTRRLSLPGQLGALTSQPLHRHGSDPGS

Row | Compound | hERG current change (%, negative = inhibition) at 1uM
1 | CC(=O)c1cc2c(cc1NC(=O)c1cc(C)nn1-c1ccccc1)OCO2 | -8.57%
2 | COc1cc2c(cc1OC)-c1cc(N3CCCCCC3)nc(=O)n1CC2 | 10.1%
3 | CNc1ccc(NC(C)=O)cc1[N+](=O)[O-] | 6.91%
4 | Cc1cccnc1 | 11.2%
5 | COCCc1nc2ccc(C(=O)NCc3cccc(-n4cccn4)c3)cc2o1 | 17.3%
6 | CCOC(=O)[C@@H]1[C@H]2COc3ccc(Br)cc3[C@@H]2N2C(=O)N(c3ccc(F)cc3)C(=O)[C@]12C | 0.688%
7 | COc1ccc(S(=O)(=O)N2CCOCC2)cc1NC(=O)COC(=O)C1CC2CCCC(C1)C2=O (stereo not drawn) | -0.752%
8 | O=C(OCc1ccccc1F)c1cc([N+](=O)[O-])ccc1N1CCOCC1 | -1.22%
9 | CCN(CC)CCO | 8.88%
10 | Cc1ccc(S(=O)(=O)O/N=C2/CCCc3occc32)cc1 | 12.8%
11 | Cc1ccccc1CCNC(=O)Cn1nc(C)c2c(C)n(-c3ccccc3)nc2c1=O | 5.1%
12 | COc1ccc(OCCNC(=O)c2ccccc2OCC(=O)N2CCCCC2)cc1 | 1.21%
13 | CC(=O)c1c(CC(=O)O)[nH]n(-c2nc3ccccc3s2)c1=O | -2.33%
14 | CCSc1nnc(NS(=O)(=O)c2ccc(C)cc2)s1 | 11.6%
15 | Cn1c(=O)[nH]c(=O)c2c1nc(N/N=C/c1ccncc1)n2Cc1ccc(Cl)cc1 | 13.3%
16 | CN(C)S(=O)(=O)c1cc(NC(=O)CNCc2ccccc2)ccc1Cl | 7.42%
17 | CCC(C)n1cnc2c(c1=O)c1nc3ccccc3nc1n2-c1ccc2c(c1)OCCO2 (stereo not drawn) | -1.38%
18 | CN1C(=O)c2cccc(NC(=O)Cc3ccccc3)c2C1=O | 12.6%
19 | CNC(=S)N1CCC(NC(=O)C(Cc2ccc(OC)cc2)NC(C)=O)CC1 (stereo not drawn) | 19.4%
20 | O=C(COc1ccccc1)NC1CCCc2ccccc21 (stereo not drawn) | 0.95%
21 | COc1cc(C(O)C(=O)O)ccc1O (stereo not drawn) | 7.64%
22 | Cc1cc(NC(=O)CSc2nnnn2-c2cc(Cl)ccc2C)no1 | 13%
23 | CCOc1ccc(C(C)=O)cc1N1C(=O)C2C3C=CC(O3)C2C1=O (stereo not drawn) | 8.72%

Row | Compound | hERG current change (%, negative = inhibition) at 1uM
24 | CCS(=O)c1scc(-c2ccc(Cl)cc2)c1C#N (stereo not drawn) | -13.3%
25 | Cc1ccc2c(c1)c(N=Nc1ccc([N+](=O)[O-])cc1)c(O)n2C | 12%
26 | CSc1ncc(Cl)c(C(=O)[O-])n1.[NH3+]CCc1ccccc1 | 0.119%
27 | COc1ccc(Cl)cc1NC(=O)CSc1nnc(-c2ccco2)o1 | 7.21%
28 | CC(C)n1c(CN2CCN(Cc3ccccc3)CC2)nc2ccccc21 | 6.63%
29 | CCCC(=O)NC(Nc1cc(C(F)(F)F)ccc1Cl)C(Cl)(Cl)Cl (stereo not drawn) | 5.79%
30 | Cc1cccc2c1-c1sc(C(=O)N3CCCCC3)cc1CO2 | -3.32%
31 | N#CC1=C2Nc3ccccc3N2C(=O)NC1(c1ccccc1)C(F)(F)F (stereo not drawn) | 10.9%
32 | CS(=O)(=O)N(CC(=O)NCCSCc1ccco1)c1ccc(Cl)cc1 | 9.33%
33 | CN(C)C(CNC(=O)c1oc2ccccc2c1CSc1ncn[nH]1)c1ccco1 (stereo not drawn) | 7.13%
34 | CN1C2c3ccccc3C3C4c5ccccc5C(C31)C(C2[N+](=O)[O-])N4C (stereo not drawn) | 11.8%
35 | COC(=O)c1cccc(NC(=O)c2onc3c2CCCC3)c1 | -2.85%
36 | CC(=O)NC(C)c1ccc(Cl)c(Cl)c1 (stereo not drawn) | 12.6%
37 | CC(NC(=O)CCC(=O)Nc1ccccc1O)c1ccccc1 (stereo not drawn) | 12.4%
38 | Cc1ccc(S(=O)(=O)NCC(c2cccnc2)N2CCN(Cc3ccccc3)CC2)cc1 (stereo not drawn) | -39.6%
39 | CC1CCCCC12NC(=O)N(CC(=O)Nc1cccc(S(=O)(=O)N3CCCCC3)c1)C2=O (stereo not drawn) | 3%
40 | CN(CC(=O)Nc1ccccc1Cl)C(=O)COC(=O)/C=C/c1ccc(C(F)(F)F)cc1 | 16.2%
41 | Cc1ccc(NC(=O)C2(c3ccc([N+](=O)[O-])cc3)CCCC2)cc1 | -10.9%
42 | Cc1ccccc1N1CCN(C(=O)C2CCC(=O)N(C3CCCC3)C2)CC1 (stereo not drawn) | 9.85%
43 | CCCn1c(SCC(=O)NCCc2ccc(OC)c(OC)c2)nc2c1c(=O)n(C)c(=O)n2C | 5.56%
44 | CCSc1nnc(NC(=O)C2CCCCC2C(=O)OCC(F)(F)C(F)F)s1 (stereo not drawn) | 8.82%
45 | COCCOC(=O)C1=C(C)NC(=O)NC1c1cccc2ccccc12 (stereo not drawn) | 15.4%
